From the supplement of paper PMC11417369
The list shows a part of the results.

System: PF3D7_0420300 AP2 domain 1 (GST-tagged)
Assay: gcPBM binding intensity (ln(normalized median fluorescence intensity)); higher = stronger DNA binding
Outline: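 GST-fused DNA-binding domains of P. falciparum, expressed in E. coli, were applied at about 25 μg on average for 1 h to an Agilent 4 × 180k array of primer-extended double-stranded 36-bp intergenic genomic probes and negative controls. Binding intensity is the highest Masliner-normalised natural-log median intensity across replicate spots of either probe orientation, measured with Alexa488 anti-GST antibody and a 488 nm scan.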

Row | Sequence | gcPBM binding intensity (ln)
1 | ATTGTAATAAATTGTAGTACATGTAAGGTTTTATTT [XGTACX_site1005] | 9.46
2 | ATAACTTATTTTTAAAGTACATTATTATATATATAT [XGTACX_site1620] | 9.19
3 | TTAAGAATATTTTCATGTACTCATTTTTTTTGTTAT [XGTACX_site1814] | 9.4
4 | AATAAAAATATATCCACACACATATATAAATATGTA [CACACA_site6415] | 9.68
5 | ATTACATATGTGAGTTGTACTATAAATATATAATAT [XGTACX_site3718] | 9.25
6 | ACATCATAGAAAAATTGATATATATATATATATATA [CACACA_negctrl_site130] | 8.95
7 | TCCACAAAGCATGTAACACACAACATATAAGACATA [CACACA_site972] | 9.62
8 | AACCACATACCTATAACACACATATACAATATAGAT [CACACA_site7023] | 9.82
9 | TATATATTTTATTTATGTACGAAAATAAATTAAATT [XGTACX_site3628] | 8.93
10 | TTAAAAAAATTAATATGTACATATATTTATATATAT [XGTACX_site5317] | 8.91
11 | TATTAAAAAGAGGTGACACACACATATAAATCTAAA [CACACA_site9243] | 9.68
12 | AATATTTTAATGCACACACACAAAAAAAAAAAAAAA [CACACA_site7374] | 9.49
13 | AATCCTTTACGACACACACACAAAAAAAAAAAAAAA [CACACA_site6449] | 9.63
14 | TTATTAAAACAAAATGTACACACATATAATTTAATG [CACACA_site8193] | 9.48
15 | TTTTTCTTTCTTTCTTTTTTAATATTACAAATGTAT [XGTACX_negctrl_site267] | 9.2
16 | TTCAATGCATGTCCATGTACATATAAAAAAAAATAC [XGTACX_site1597] | 9.08
17 | TGTTGGCAGGTGAATGCATGCATATAAGTCTATCTG [TGCATGCA_site781] | 9.07
18 | CACCCTTTACACAAGGTGCATACTTTATTATATTTT [GTGCAC_site9778] | 9.46
19 | AAAGTAGAATATCCCCTACACACCCAAATAATTTAC [CACACA_site1255] | 9.85
20 | TTTTGTTTCTATATAAGATGGAAATATAAACTTGTA [CACACA_negctrl_site82] | 8.85
21 | TTAAGATCCTAAAAAACACACAATTGTGAATAATAA [CACACA_site3872] | 9.31
22 | GTAAGTTGTGCATTCACACACATATATATATATATA [CACACA_site3303] | 9.58

Row | Sequence | gcPBM binding intensity (ln)
23 | TATATATATATATATACATGCATATATATAATATAT [TGCATGCA_site763] | 9.03
24 | AAATATATATAAATGAGTACTTATGGTAACATATAT [XGTACX_site6362] | 9.4
25 | AGAGCATAATAAAACACACACATACATACCTATATA [CACACA_site6566] | 9.95
26 | ATAAATAATTATAATTGTACACATATATATATATAC [XGTACX_site3998] | 9.26
27 | TTCCACATTTTACAGACACACACAATTTATATTACG [CACACA_site8572] | 9.63
28 | AAAAAATATTGAAGTACACACATTATGAACTTTTTT [CACACA_site1733] | 9.34
29 | TGTTTTTATAATATTAGTACATAATATACATAATTC [XGTACX_site2787] | 9.13
30 | AATAAATTAATTTTGGGTACATATATATATATATAT [XGTACX_site3807] | 9.21
31 | GAAGAATAAATATGCACACATGCATATATTTTTACA [CACACA_site3459] | 9.21
32 | AGAAAAAAAAAAAAAAAAAAAAAATTGAATATATAT [TGCATGCA_negctrl_site55] | 9.05
33 | TTTATTATCTTATTCACACACATATATATATATATA [CACACA_site2869] | 9.62
34 | ATATATTTTTACCATACACACATATAACAAATATAT [CACACA_site7706] | 9.68
35 | TACAATTCGTAATACACACACATATATATATATATT [CACACA_site3751] | 9.67
36 | TAAAAAAATTTAACATGTACAAATATTGAAAAGGAC [XGTACX_site7608] | 9.82
37 | ATTAAAAAAGAATATACACACCAAAACTGTTTGTTA [CACACA_site4687] | 9.21
38 | TTTTTAAATATAAACAAAAAAAAAAAATATATCAAT [XGTACX_negctrl_site328] | 9.29
39 | ATCATATTTATGTTGGTGCATTATGCATGGATTTTA [GTGCAC_site9795] | 9.2
40 | ATTTTTATTTTTATTTGTACTTATATATTCTTAAGC [XGTACX_site4122] | 9.31
41 | AATACCCAAGGACACACACACACATATATATATATA [CACACA_site8345] | 10.2
42 | ATAATATAAATACAAACACACAATTGTGTCCACATT [CACACA_site6920] | 9.72
43 | GGAAAATGAAAAACAAAAAAAAAAAAAAAAAAATGA [TGCATGCA_negctrl_site432] | 9.37
44 | ATATTCCTACATACAACACACGACGTTCTCATAAGA [CACACA_site231] | 9.39

Row | Sequence | gcPBM binding intensity (ln)
45 | AAAAATAGACAAAAGAGTACAAGAAAAAAAGGGTTC [XGTACX_site7843] | 9.86
46 | ACATCTGTTATTTGTGGTACTAAAAAAATATATAGT [XGTACX_site8322] | 9.17
47 | TCTTTTTAGATATATACACACCGTGTCTACCTATAC [CACACA_site7551] | 9.41
48 | TTTTAAAGTTGTGAGCTTCATTTTTATTTATATGTA [CACACA_negctrl_site1505] | 9.23
49 | TTACAATTAATAAAGTGTACTTAACTATTATATATA [XGTACX_site481] | 9.01
50 | TTGATCTATAATAATACACACTTACATAATTAATTA [CACACA_site6273] | 9.17
51 | ATATATATATATGTCTGTACATAAAAAATAATAAAT [XGTACX_site3122] | 9.26
52 | TCCTCATTTTATCATACACACTTGTTTATATGGGTG [CACACA_site4650] | 9.37
53 | ACCCATAAAAATTATGCACACTTAATAAAGCGAAAT [CACACA_site5722] | 9.42
54 | ATAATTTATTTTAAAAGTACTCAATTTGCTTTTCTC [XGTACX_site5749] | 9.04
55 | TTTACAAAAAATTATACACACACGTACAGATAAATA [CACACA_site4678] | 9.89
56 | TATATTTATTATAATTGTACATAAAATAAACTAAGA [XGTACX_site4318] | 9.19
57 | AAATAATTAAACATATGTACATATTATATATATATA [XGTACX_site6774] | 9.23
58 | AATATTTATATTTAGTGTACAGAAATAAAAAAAAAA [XGTACX_site6066] | 9.2
59 | ATATACATTTAAATGTGTACATAATAAAATAAAAAA [XGTACX_site8170] | 9.35
60 | CAAAAAAAAAAAAAAACACACATTAAATTAGAAAGA [CACACA_site7271] | 9.54
61 | GCTAATTTATTTTGCAGTACATATATAATAATATAT [XGTACX_site478] | 9.12
62 | TTTTTATTTAATAGTTGTACATTGAAAAATATGTAT [XGTACX_site3025] | 9.03
63 | TGATTAAATAAATATATATATTTATATATTATACAG [CACACA_negctrl_site1596] | 8.93
64 | TATATATATATATATGTGCACTGGACATATTTTTAT [GTGCAC_site9721] | 9.3
65 | CAAATAAATATTAAAAGTACACACAGATACACTAAT [XGTACX_site3749] | 9.88
66 | GCTCTATCAAAAAAATGTACACATATTATCATTCAT [XGTACX_site143] | 9.27

Row | Sequence | gcPBM binding intensity (ln)
67 | AATTAAAATAGTAATACACACTTCATAGGAAATGAT [CACACA_site5045] | 9.33
68 | TATGTATCAAATAAATGTACATATATATATATATAT [XGTACX_site2189] | 9.07
69 | AAATTTTTTATGAACACACAAATACACGCACTCAAA [CACACA_site7286] | 9.66
70 | AATAATAAAATAAAGGCATGCACAATATGCTATAAA [TGCATGCA_site645] | 9.55
71 | TAAAATATATAAAACTGTACATTTTAAAGGCACAAC [XGTACX_site8342] | 9.56
72 | CTGAAGGAAAAAGAAAGTACTTTTTTTTTTTTGAAG [XGTACX_site5973] | 8.61
73 | CCTTTATTTTATATGTGTACTAAATTGTATATATAT [XGTACX_site8717] | 9.33
74 | ATGTTTTATAAAAGGCGTACACATATGCTTAAGTAA [XGTACX_site6232] | 9.37
75 | AAAAAAAAAATATCATGTACAAATATAATAAAATTT [XGTACX_site3896] | 9.27
76 | TATAGCAAAAAATTTACACACATGTTTTTTCTATAC [CACACA_site325] | 9.57
77 | GGCATTTTATGAAGTAGTACCATAAATATTAAAGAT [XGTACX_site5287] | 9.27
78 | TTTTTACTATTTATATGACTAAAAATATATTGAATA [CACACA_negctrl_site188] | 8.93
79 | TAAATTAATAAACAAGTGCATATATATATATATATA | 9.2
80 | GTCATATTAATATGTACACACATATTTATATTTATA [CACACA_site6798] | 9.49
81 | TTTTATGTAACATCACGTACTTATATTTAAGTATTC [XGTACX_site7459] | 9.26
82 | CAAGCACACGGACACACACACACACGCGCACGCACA [CACACA_site6307] | 10.2
83 | CAATTTATTTTTATTACACACTATCCAAGTAATTTC [CACACA_site7402] | 9.32
84 | AATATAATATAATGCACACATAAAACAAAAAAAAAA [CACACA_site3012] | 9.79
85 | AAATATATCATACAAAGTACTTGGAATTAATATATA [XGTACX_site8907] | 9.14
86 | TCTTTTAAATAACAACATAAATAAATAAATAAATAA [GTGCAC_negctrl_site319] | 9.01
87 | GTTGATACATGAAGCTGTACATAATATTTGTCATTT [XGTACX_site8628] | 9.42
88 | TAATTTTTCCAACTTTGTACAGATATATTAATAAAA [XGTACX_site7856] | 8.86
